From PubChem BioAssay (NCATS)
The inconclusive results got no clear call from the source; some entries with a clear call stand among them for comparison. Potencies of inconclusive entries are left out as doubtful fits. Activity calls are given as the source filed them. Calls come from the whole dose curve; as a rule, active = well fitted inhibition curve with a large enough effect; inconclusive = small, poorly fitted or top-dose-only effect; inactive = no such curve, though single readings can be large or run the other way.

Experiment: Primary fluorescence-based thiol-reactive (MSTI) qHTS assay for identification of artifact compounds. (AID 1845221);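 note: thiol-reactive compounds lower the probe fluorescence signal; nearly all actives have a fitted effect of over 65% in size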
Conditions: MSTI thiol-reactivity probe, 1 h; series mostly up to 53.8 µM
From the text: PI: Alexander Tropsha Ph.D.
UNC Eshelman School of Pharmacy
University of North Carolina, Chapel Hill, North Carolina
Hits from high-throughput screening (HTS) of chemical libraries are often false positives due to their interference with the assay detection technology. In response to this problem, we generated the largest publicly available library of chemical liabilities and developed a free webtool to predict HTS artifacts, both of which are described herein. More specifically, we generated, curated, and integrated HTS datasets for thiol reactivity, redox activity, and luciferase (firefly and nano) activity. Using these curated datasets, we developed and validated several Quantitative Structure-Interference Relationship (QSIR) models to predict nuisance behavior. […] These models were employed for virtual profiling of the National Center for Advancing Translational Science's (NCATS) in-house library, and 256 compounds for each assay were selected for the experimental validation of nuisance behavior. The BA for these external predictions ranged from 58 to 78% for compounds within the applicability domains of the models. […] The models developed in this study, along with aggregation models previously developed by our group (SCAM Detective) were implemented in "Liability Predictor," an online tool which may be used as part of chemical library design or for triaging HTS hits. Both the models and the curated datasets are publicly available at https://liability.mml.unc.edu/.
SEQUENCE No. (e.g., 1, 2, 3, etc.); […] (e.g., Cells, Incubation, Reagent, etc.); VALUE; DESCRIPTION.
1; Reagent; 4 uL; […].
2; Compounds and control; 16 nL; Kalypsis pin tool (Wako USA) equipped with a 1536-well pin head.
4; Detection; Fluorescence, ViewLux microplate reader, 525 nm excitation, 598 nm emission.
NOTES (numbers refer to Sequence numbers above)
1. Assays determining (E)-2-(4-mercaptostyryl)-1,3,3-trimethyl-3H-indol-1-ium (MSTI) reactivity were performed as previously described in the literature with modifications for the quick identification of compounds reacting with thiol. In brief, 4 uL of MSTI or positive control Acetyl-MSTI (final concentrations of 4 uM and 4 uM, respectively) in assay buffer (2% DMSO in 1X PBS pH 7.4) was dispensed into all wells of a 1536-well assay plate (solid-bottom black plate; Greiner Bio One, Monroe, NC).
2. A Wako Pin-tool (Wako Automation, Richmond, VA) was used to transfer 16 nL of compounds (consisting of 7-plates in qHTS format, final concentration range 18.3 nM to 114 uM) or control MLS001163887 (final concentration range 1.22 nM to 40 uM).
3. Plates were centrifuged (121xg, 15 seconds) and incubated for 1 hour at room temperature protected from light.
4. Samples were read for fluorescence (Ex/Em = 525(20)/598(25) nm) on a ViewLux CCD imager (PerkinElmer). Data were normalized to Acetyl-MSTI (0% activity) and MSTI (100% activity) and the resulting percent inhibition data were fitted to a 4-parameter Hill equation using NCATS in-house software.
Potency is the fitted concentration of half-maximal effect; tags give direction and shape of the fitted curve.

| SMILES | Potency |
| --- | --- |
| CC1(C)CC[C@]2(C(=O)O)CC[C@]3(C)C(=CCC4[C@@]5(C)C[C@H](O)[C@H](O[C@@H]6O[C@H](CO)[C@@H](O)[C@H](O)[C@H]6O)[C@@](C)(CO)C5[C@H](O)C[C@]43C)[C@@H]2C1 (stereo not given in full) | inactive |
| CCC(C)/C=C(C)/C=C/C1=CC2=C(Cl)C(=O)C(C)(OC(C)=O)C(=O)C2=CN1CCCC(=O)O (stereo not given) | active: 0.367 µM |
| COc1cc(O)cc(O[C@@H]2O[C@H](CO)[C@@H](O[C@@H]3OC[C@](O)(CO)[C@H]3O)[C@H](O)[C@H]2O)c1OC | inconclusive [inhibitor, partial curve, poor fit] |
| CC/C=C\CCO[C@@H]1O[C@H](CO[C@@H]2OC[C@H](O)[C@H](O)[C@H]2O)[C@@H](O)[C@H](O)[C@H]1O | inconclusive [inhibitor, partial curve] |
| C=C1CCC2C(C)(C)CCC[C@]2(C)[C@H]1C/C=C(\CO)C(=O)C(=O)O (stereo not given in full) | inconclusive [inhibitor, partial curve] |
| C=C(CCO[C@@H]1O[C@H](CO)[C@@H](O)[C@H](O)[C@H]1O)C(=O)O | inconclusive [inhibitor, partial curve, poor fit] |
| CC(/C=C/C1(O)C(C)CC(O)CC1(C)C)OC1OC(CO)C(O)C(O)C1O (stereo not given) | inconclusive [inhibitor, partial curve] |
| CC1CC(O)/C=C/C(O)C(O)CC(=O)Cc2c(Cl)c(O)cc(O)c2C(=O)O1 (stereo not given) | inconclusive [inhibitor, full curve, poor fit] |
| OC[C@H]1O[C@@H](Oc2ccccc2)[C@H](O)[C@@H](O)[C@@H]1O | active: 21.2 µM |
| C=C1CCC[C@]2(C)C[C@]3(O)OC(=O)C(C)=C3C[C@@H]12 | inactive |
| C[C@@H]1C(=O)O[C@H]2[C@H]1CC[C@@]1(C)C(=O)C=C[C@@](C)(O)[C@H]21 | inconclusive [inhibitor, full curve, poor fit] |
| OC[C@H]1O[C@@H](Oc2cc(O)cc(-c3cc4ccc(O[C@@H]5O[C@H](CO)[C@@H](O)[C@H](O)[C@H]5O)cc4o3)c2)[C@H](O)[C@@H](O)[C@@H]1O | active: 10.3 µM |
| Cc1c(Cc2ccc3ccccc3n2)c2cc(F)ccc2n1CC(=O)O | inconclusive [inhibitor, full curve, poor fit] |
| CCCCS(=O)(=O)Nc1ncnc(OCCOc2ncc(Br)cn2)c1-c1ccc(Br)cc1 | inactive |
| O=C(Nc1ccc(N2CCC(C(=O)N3CCOCC3)CC2)cc1)c1cnc(Oc2ccccc2)nc1 | inconclusive [inhibitor, full curve] |
| COc1ccc(CC(NC(C)=O)C(=O)O)cc1 (stereo not given) | active: 4.74 µM |
| COC(=O)C(CC1CCCC1)c1ccc(S(C)(=O)=O)cc1 (stereo not given) | inactive |
| CC/C=C\[C@H](O)[C@H](O)C1=C(C)C(=O)[C@]2(O1)C(=O)N[C@@](OC)(C(=O)c1ccccc1)[C@@H]2O | inconclusive [inhibitor, partial curve] |
| CCC(C)/C=C(C)/C=C/C1=CC2=C(Cl)C(=O)C(C)(OC(C)=O)C(=O)C2=CN1CCCCC(N)C(=O)O (stereo not given) | active: 0.653 µM |
| C[C@@H]1O[C@@H](O[C@H]2[C@@H]3C=CO[C@@H](O[C@@H]4O[C@H](CO)[C@@H](O)[C@H](O)[C@H]4O)[C@@H]3[C@@]3(CO)O[C@@H]23)[C@H](OC(=O)/C=C/c2ccc(O)cc2)[C@H](O)[C@H]1O | active: 3.54 µM |

| SMILES | Potency |
| --- | --- |
| CC1(CO)CC(O)C2(C)CCC3(C)C(=CCC4C5(C=O)CCC(OC6OC(C(=O)O)C(O)C(O)C6OC6OC(C(=O)O)C(O)C(O)C6O)C(C)(C)C5CCC43C)C2C1 (stereo not given) | inconclusive [inhibitor, partial curve, poor fit] |
| C=C[C@]1(C)C[C@H](O)[C@@H]2[C@H](OC(=O)[C@@H]2C)C1/C(C)=C/O[C@@H]1O[C@H](CO)[C@@H](O)[C@H](O)[C@H]1O (stereo not given in full) | inconclusive [inhibitor, partial curve, poor fit] |
| CN([C@H]1c2cc(OCCCC(F)(F)F)ccc2OC(C)(C)[C@@H]1O)S(C)(=O)=O | inactive |
| COC(=O)C1=CO[C@@H](O[C@@H]2O[C@H](CO)[C@@H](O)[C@H](O)[C@H]2O)[C@@H]2C(CO)=CC[C@]12O | inconclusive [inhibitor, partial curve, poor fit] |
| COc1ccc(/C=C/C(=O)O[C@@H]2[C@@H](O)[C@H](C)O[C@@H](OC3C4C=COC(O[C@@H]5O[C@H](CO)[C@@H](O)[C@H](O)[C@H]5O)C4C4(CO)OC34)[C@@H]2O)cc1OC (stereo not given in full) | inconclusive [inhibitor, partial curve, poor fit] |
| CC1(CO)CC2C(O)C3=C(CC(C)(O)C2C1)C(=O)OC3 (stereo not given) | inconclusive [inhibitor, partial curve, poor fit] |
| CC(=O)Oc1cc2c(s1)CCN([C@H](C(=O)C1CC1)c1ccccc1F)C2 | inconclusive [inhibitor, partial curve] |
| C/C=C/C=C/C(O)=C1/C(=O)[C@]2(C)C(=O)[C@@](C)(O)[C@H]1[C@H]([C@@]1(C)OC(=O)C(C)=C1O)[C@H]2C(=O)CC/C=C/C | active: 4.12 µM |
| C[C@@H]1CCC/C=C/[C@H]2CC(=O)C[C@@H]2[C@@H](O)/C=C/C(=O)O1 | inconclusive [inhibitor, partial curve, poor fit] |
| COC(=O)C1=COC(O[C@@H]2O[C@H](CO)[C@@H](O)[C@H](O)[C@H]2O)[C@@H]2[C@@](C)(O)[C@@H](OC(=O)/C=C/c3ccccc3)C[C@]12O (stereo not given in full) | active: 13 µM |
| Cc1occc1C(=O)n1ccnc1 | inconclusive [inhibitor, partial curve] |
| COC(=O)C1=CO[C@@H](O[C@@H]2O[C@H](CO)[C@@H](O)[C@H](O)[C@H]2O)[C@@H]2[C@@H](C(=O)OC)[C@@H](O)C(O)[C@H]12 (stereo not given in full) | inconclusive [inhibitor, partial curve] |
| COC(=O)[C@]1(Cc2ccc(O)c(CC=C(C)C)c2)OC(=O)C(O)=C1c1ccc(O)cc1 | inconclusive [inhibitor, full curve] |
| O=C(CCCCN1CCOCC1)Nc1ccc(-c2cccnc2)cc1 | inactive |
| C[C@@H]1C(=O)O[C@H]2CC34[C@H]5C[C@@H](C(C)(C)C)C36[C@@H](OC(=O)[C@@H]6O)OC4(C(=O)O5)[C@]21O (stereo not given in full) | inconclusive [inhibitor, full curve] |
| CC(C)=CCc1c(O)cc2oc3cc(C)cc(O)c3c2c1C | active: 4.74 µM |
| CC1=CC[C@@]2(C)CC[C@@](O)(C(C)C)[C@@H]2[C@@H](O)C1 | inactive |
| CC[C@H](NC(=O)c1c(O)c(-c2ccccc2)nc2ccccc12)c1ccccc1 | active: 2.67 µM |
| CC(C)=CCC/C(C)=C/CO[C@@H]1O[C@H](CO[C@@H]2O[C@@H](CO)[C@H](O)[C@H]2O)[C@@H](O)[C@H](O)[C@H]1O | inconclusive [inhibitor, partial curve] |
| O=C(CC1NCCC[C@H]1O)Cn1cnc2cc(Br)c(Cl)cc2c1=O (stereo not given in full) | inconclusive [inhibitor, partial curve, poor fit] |
